Where “and” joins values, the source holds several entries; their conditions need not be identical. Equal values may be shown once. ± gives the standard deviation of the averaged measurements. The list shows a part of the results. Single values are uncertain, as repeats are few or missing.
System: mouse mesenchymal chondrosarcoma cells (HEY1-NCOA2)
Assay: XTT absorbance relative to DMSO control (cell viability) (fraction of DMSO control); higher = more viable cells / less growth inhibition

| Compound | XTT absorbance |
| --- | --- |
| CC(C)C[C@H](NC(=O)[C@@H](O)[C@H](N)Cc1ccccc1)C(=O)O [Bestatin] | 1.02 |
| Cc1ccc(-c2cn3c4c(sc3n2)CCCC4)cc1 [Pifithrin-a (cyclic)] | 0.965 |
| C[C@@H](N)[C@H]1CC[C@H](C(=O)Nc2ccncc2)CC1 | 0.906 and 0.909 |
| NC(=O)c1ccccc1 [Benzamide] | 0.877 |
| O=C1Nc2ccc(I)cc2/C1=C\c1cc(Br)c(O)c(Br)c1 [RAF1 kinase inhibitor I] | 0.913 |
| C/C=C/C=C\C=C/C(O)C(C)C(CCC(C)C1OC(=O)C=CC1C)OP(=O)(O)O (stereo unspecified) [Cytostatin] | 0.888 |
| CCN(CC)CC(=O)Nc1c(C)cccc1C [Lidocaine] | 0.913 |
| CCC(=C/[C@H](C)C/C=C/C(C)=C/[C@@H](C)C(=O)[C@@H](C)[C@H](O)[C@@H](C)C/C(C)=C/C(=O)O)/C=C/[C@@H]1OC(=O)C=C[C@@H]1C [Leptomycin B*] | 0.196 |
| CC(C)(C)c1cc(O)ccc1O [t-Butylhydroquinone (BHQ)] | 0.933 |
| O=C(NCCCCCCNC(=O)ON=C1CCCCC1)ON=C1CCCCC1 | 0.92 |
| Oc1ccc(-c2nc(-c3ccc(F)cc3)c(-c3ccncc3)[nH]2)cc1 | 0.908 |
| COc1ccc(Cl)cc1C(=O)NCCc1ccc(S(=O)(=O)NC(=O)NC2CCCCC2)cc1 [Glibenclamide] | 1.02 |
| Oc1c2ccccc2c2c3c(cccc13)N=N2 | 0.9264 ± 0.004 |
| Nc1ncn([C@@H]2O[C@H](CO)[C@@H](O)[C@H]2O)c(=O)n1 [Azacytidine] | 0.873 |
| CC[C@@]1(O)C[C@H](O[C@H]2C[C@H](N(C)C)[C@H](O[C@H]3C[C@H](O)[C@H](O[C@H]4CCC(=O)[C@H](C)O4)[C@H](C)O3)[C@H](C)O2)c2c(cc3c(c2O)C(=O)c2c(O)cccc2C3=O)[C@H]1C(=O)OC [Aclarubicin] | 0.402 |
| Cc1cc(Nc2cc(N3CCN(C)CC3)nc(/C=C/c3ccccc3)n2)n[nH]1 | 0.698 |
| Clc1ccccc1CNCC1CCC(CNCc2ccccc2Cl)CC1 (stereo unspecified) | 1.05 |
| CCn1cc(C(=O)O)c(=O)c2ccc(C)nc21 [Nalidixic acid] | 0.902 |

| Compound | XTT absorbance |
| --- | --- |
| CCCCCCCCCCC1=C(C)C(=O)C(OC)=C(OC)C1=O [Decylubiquinone] | 0.952 |
| Cc1c2oc3c(C)ccc(C(=O)N[C@@H]4C(=O)N[C@H](C(C)C)C(=O)N5CCC[C@H]5C(=O)N(C)CC(=O)N(C)[C@@H](C(C)C)C(=O)O[C@@H]4C)c3nc-2c(C(=O)N[C@@H]2C(=O)N[C@H](C(C)C)C(=O)N3CCC[C@H]3C(=O)N(C)CC(=O)N(C)[C@@H](C(C)C)C(=O)O[C@@H]2C)c(N)c1=O [Actinomycin D] | 0.238 |
| CC(C)c1ccc2c(c1)c(SC(C)(C)C)c(CC(C)(C)C(=O)O)n2Cc1ccc(Cl)cc1 | 0.933 |
| N=C(N)NC(=O)c1nc(Cl)c(N)nc1N [Amiloride] | 0.886 |
| CO[C@@H]1[C@H](OC(=O)/C=C/C=C/C=C/C=C/C(=O)O)CC[C@]2(CO2)[C@H]1[C@@]1(C)O[C@@H]1CC=C(C)C [Fumagillin] | 0.732 |
| CN(C)c1ccccc1CN1CCCN(Cc2ccccc2N(C)C)C1c1ccncc1 | 1 |
| COc1cc(/C=C(\C#N)C(N)=O)cc(CSc2nc3ccccc3s2)c1O | 0.936 ± 0.044 |
| COc1cc2ncc(-c3ccccc3)nc2cc1OC | 0.859 ± 0.056 |
| CO[C@@]12[C@H](COC(N)=O)C3=C(C(=O)C(C)=C(N)C3=O)N1C[C@@H]1N[C@@H]12 [Mitomycin C] | 0.649 |
| COc1nccc(-c2c(-c3ccc(F)cc3)ncn2C2CCC(O)CC2)n1 (stereo unspecified) | 0.846 |
| CC1=Nc2ccc(Cl)cc2S(=O)(=O)N1 [Diazoxide] | 0.921 |
| O=CN1CCN(c2ccc(/C=C3\C(=O)Nc4ccccc43)cc2)CC1 | 0.955 |
| O=C(O)c1ccccc1Nc1ccccc1 [N-phenylanthranilic acid] | 0.92 |
| CNCc1ccc(-c2[nH]c3cc(F)cc4c3c2CCNC4=O)cc1 | 0.905 |
| Cc1nc2c(O)cccc2c(=O)[nH]1 | 0.857 |
| Nc1[nH]nc2nnc(-c3c(-c4ccccc4)nn4ccccc34)cc12 [ERK inhibitor II] | 0.914 |
| CCN(CC)CCNC(=O)c1c(C)[nH]c(/C=C2\C(=O)Nc3ccc(F)cc32)c1C [sunitinib malate] | 0.76 |
| N#CCCc1ccc2c(c1)-c1[nH]c3ccc([N+](=O)[O-])cc3c1CC(=O)N2 [Alsterpaullone, 2-cyanoethyl] | 0.912 |

Source: the supplement of paper PMC10322689
